{
  "source": "the RNAGym collection of RNA variant scans (doi:10.7554/elife.90254)",
  "parents": {"B1": {"name": "OR4K15 (parent)", "chain": "GUUAACGGUCAUAGGCCAUGGAAACUAGGAGCACCAUUUCGCUGCCAGUGAAGAAAUGAACAAAGAAAAUCUGGGCCAGGCAGGCAUCAAAAGAAAUAGUCUUGCGCUCAACCAGAAAGUCUGUAAUCAUUUUAAGGGUA"}},
  "note": "The source gives no read counts; variants with many changes may rest on few reads.",
  "data": [
    {"variants_of": "B1", "assay": "self-cleavage, relative activity (ratio to wild type); higher = more cleavage; in vitro, sequencing; the parent is a self-cleaving ribozyme", "values": [
      {"variant": "A30G U43C A96G", "self-cleavage": 1.14},
      {"variant": "A11G U43C A52U G75A U103A G106A", "self-cleavage": 0.02},
      {"variant": "U2C U122A G123A A135C", "self-cleavage": 1.02},
      {"variant": "U43C A96G U102A A114U", "self-cleavage": 0.03},
      {"variant": "U57C A66G U124A", "self-cleavage": 0.77},
      {"variant": "A54G U100C U130C", "self-cleavage": 2.08},
      {"variant": "C45U U70C A89G A96G", "self-cleavage": 1.1},
      {"variant": "A47G A86G A118U", "self-cleavage": 0.62},
      {"variant": "A22G G119A U131C", "self-cleavage": 1.04},
      {"variant": "A78G G80A U103C U127C", "self-cleavage": 0.03},
      {"variant": "U70C A91G U124C", "self-cleavage": 0.19},
      {"variant": "A51U A55G A118G", "self-cleavage": 0.83},
      {"variant": "U2C A51G A55U U97A", "self-cleavage": 1.2},
      {"variant": "U37A A78U A92U A96G", "self-cleavage": 0.09},
      {"variant": "U38C A68G A94G A114U", "self-cleavage": 0.07},
      {"variant": "A13G A59G U102C A118G", "self-cleavage": 1.78},
      {"variant": "A13G A51G A86U", "self-cleavage": 1.36},
      {"variant": "U9A A56G U70C A117G", "self-cleavage": 1.23},
      {"variant": "U9C A13G U19C A56G", "self-cleavage": 0.78},
      {"variant": "A22G C40U A55G", "self-cleavage": 0.66},
      {"variant": "U70G U120C U131C", "self-cleavage": 0.15},
      {"variant": "A22G A59G U70C A96G A116G", "self-cleavage": 1.03},
      {"variant": "C40A A55G U97C U132C", "self-cleavage": 0.48},
      {"variant": "A22G U39C A96G A111U", "self-cleavage": 0.06},
      {"variant": "U57C C107U A140G", "self-cleavage": 0.01},
      {"variant": "C71A A82U A90G A126U U127A", "self-cleavage": 0.05},
      {"variant": "U103C A110G A118G A129G U131C", "self-cleavage": 0.03},
      {"variant": "U38C A96U U100A", "self-cleavage": 0.33},
      {"variant": "U37C A62G A90G U108C", "self-cleavage": 0},
      {"variant": "A4G A30G A60G A78U A86C A114G A129G", "self-cleavage": 0.06},
      {"variant": "U38C U57C A114U A117U A125G", "self-cleavage": 0.02},
      {"variant": "A18G A89G A95G A117G", "self-cleavage": 0.95},
      {"variant": "U19C U37C A56G A60U A86G", "self-cleavage": 0.87},
      {"variant": "G15A U37C A60G G74C U127C", "self-cleavage": 0.03},
      {"variant": "A68G A86G U122C U133C", "self-cleavage": 1.64},
      {"variant": "A4G A62G G75A", "self-cleavage": 0.26},
      {"variant": "A63U U70C A92U U127C", "self-cleavage": 0.73},
      {"variant": "U39A A59G A66U U72A A91G", "self-cleavage": 0.21},
      {"variant": "A55G A95G U97A U102C U127C U131C", "self-cleavage": 1.87},
      {"variant": "A47C G65A A114G A129G", "self-cleavage": 0.01},
      {"variant": "A18G G74U A82U", "self-cleavage": 0.15},
      {"variant": "U2A A69G U102G U127C", "self-cleavage": 0.74},
      {"variant": "U3C A5G U19C A59C A89G A94G U122C", "self-cleavage": 0.39},
      {"variant": "A36U A92G A110G A129G", "self-cleavage": 0.07},
      {"variant": "U3C G15A A18U C25A A51U A117G U122A", "self-cleavage": 0.92},
      {"variant": "A51U A56G C81U", "self-cleavage": 0.57},
      {"variant": "A22G C46G U49C C61G", "self-cleavage": 0.44},
      {"variant": "U39C U43C A56U", "self-cleavage": 1.45},
      {"variant": "A24G A67G A96G G106C A111G", "self-cleavage": 0},
      {"variant": "A56C A60G U87C A116G A135G", "self-cleavage": 0.13},
      {"variant": "G14U A51U A63G A126G", "self-cleavage": 0.28},
      {"variant": "A5G A13G A60U", "self-cleavage": 0.7},
      {"variant": "U9A U39C A60G", "self-cleavage": 1.6},
      {"variant": "A64G A90G A117G", "self-cleavage": 0.82},
      {"variant": "A22G A60U U87C U108C", "self-cleavage": 0.04},
      {"variant": "U49G A52G U124C", "self-cleavage": 0.32},
      {"variant": "U2C A24G A60G", "self-cleavage": 1.02},
      {"variant": "A52G A55U A67G", "self-cleavage": 1.74},
      {"variant": "A55U A126G U127C", "self-cleavage": 0.67},
      {"variant": "A63G U70C A126U", "self-cleavage": 0.98},
      {"variant": "U9C G83A A94G", "self-cleavage": 2.06},
      {"variant": "A27G A47G A60G A63G U87C", "self-cleavage": 0.85},
      {"variant": "U2G A63G A90G", "self-cleavage": 1.26},
      {"variant": "C32A U49A A78U", "self-cleavage": 0.44},
      {"variant": "A24C U43C A90U U100G U122C", "self-cleavage": 2.29},
      {"variant": "A114G U127C U131C", "self-cleavage": 0.13},
      {"variant": "U57C A96G A114G", "self-cleavage": 0.29},
      {"variant": "A11G A54G A111G", "self-cleavage": 0.01},
      {"variant": "A94G A118G U132C", "self-cleavage": 0.95},
      {"variant": "U3C U9G C105U", "self-cleavage": 0.3},
      {"variant": "A22G U87A A126G", "self-cleavage": 1.08},
      {"variant": "U37C G79A U102C A126G", "self-cleavage": 0.08},
      {"variant": "G14U A51G A64G", "self-cleavage": 0.99},
      {"variant": "A82G A92G A95G U122A U131C", "self-cleavage": 0.57},
      {"variant": "U72C U87A A114C A117G", "self-cleavage": 0},
      {"variant": "A36G C113U A117G", "self-cleavage": 0.19},
      {"variant": "A64U A89G A96G", "self-cleavage": 0.85},
      {"variant": "A23G A54G A60U A63G U70A", "self-cleavage": 1.54},
      {"variant": "U43A A90G A135G", "self-cleavage": 1.15},
      {"variant": "U9C A23G A47G A60U A126C", "self-cleavage": 0.3},
      {"variant": "U97C U102C U120G", "self-cleavage": 1.93},
      {"variant": "U49C A95G U102C", "self-cleavage": 2.95},
      {"variant": "A68G A92G A129C U130C", "self-cleavage": 0.35}
    ]}
  ]
}
